According to ChEMBL document CHEMBL1156829:
In all, about 5,400 compounds were measured (“IFI”: median about 2, highest 2% from about 22 on). This is one part of the list.

Assay: NOVARTIS: Inhibition Frequency Index (IFI) - the number of HTS assays where a compound showed > 50% inhibition/induction, expressed as a percentage of the number of assays in which the compound was tested.
Type: functional

Compound | IFI
C=CCOc1ccccc1CN1CCN(c2ccccn2)CC1 | 2.98%
CCCCNC(=O)CCCNC(=O)Cn1cnc2sc3c(c2c1=O)CCCC3 | 3.53%
COc1ccc(CCN(Cc2ccc(Cl)cc2)S(=O)(=O)c2ccc(S(N)(=O)=O)cc2)cc1OC | 1.85%
NNC(=O)CNC(c1ccccc1)c1cc(Br)ccc1NC(=O)c1ccccc1Br (stereo not given) | 3.08%
CC[n+]1c(/C=C/c2ccc(N(C)C)cc2)sc2cc(NC(C)=O)ccc21 | 4.69%
COc1cc(NC(C)CCCN(Cc2ccc(N(C)C)cc2)C(=O)C(Cl)Cl)c2ncccc2c1 (stereo not given) | 4.67%
CCN1C=C/C(=C\c2cccc[n+]2C)c2ccccc21 | 0%
COc1ccc2c(ccc(/C=C3\C=CC=CN3C)[n+]2C)c1 | 6.67%
CC(C)CNc1nc(NCCCN2CCCCC2C)ncc1C(=O)NCc1ccccc1 (stereo not given) | 3.92%
CC(C)CNc1nc(NCCCN)ncc1C(=O)NCCc1ccccc1 | 1.91%
CSc1oc(-c2ccccc2)nc1C(N)=O | 0%
CC(C)CN(CC(=O)N1CCC(Nc2nsc3ccccc23)C1)S(C)(=O)=O (stereo not given) | 20.8%
COc1ccc2c(c1)sc1nc(C)c(C)c(C)[n+]12 | 2.76%
CCc1c(C)c(C#N)c2nc3ccccc3n2c1NCc1ccccc1 | 5%
CCOc1ccc(Nc2nc(NCc3ccccc3)c3ccccc3n2)cc1 | 7.14%
COc1ccc(OC)c(NC(=O)CSc2nc(NCc3ccc(Cl)cc3)c3ccccc3n2)c1 | 2.22%
CCOC(=O)CCCCC(=O)c1[nH]c(=O)[nH]c1Cn1ccnc1 | 1.46%
Nc1nc(N)c2cc(S(=O)(=O)c3ccc4ccccc4c3)ccc2n1 | 12.4%
CCOc1ccc2cc(C#N)c(SCC(=O)N3CC(=O)Nc4ccccc43)nc2c1 | 0%
CC1CCCCN1CCCNCc1ccc(OCc2ccccc2)cc1 (stereo not given) | 6.48%
OC(CNc1cccc2ccccc12)Cn1c2ccccc2c2ccccc21 (stereo not given) | 3.68%
CCC(C)NC(=O)c1nn(-c2cccc(OC)c2)c(=O)c2ccccc12 (stereo not given) | 0%

Compound | IFI
N#CCSc1ncccc1C(=O)NCCc1ccc(Oc2ccccc2)cc1 | 2.78%
CCCCc1ccc(C(=O)Oc2ccccc2-c2nc3cc(C)ccn3c2NC(C)(C)CC(C)(C)C)cc1 | 5.26%
Cc1cc(NC(=O)c2ccc(Br)cc2)no1 | 0%
CCc1nc2nc(C)cc(Nc3ccc(C)c(F)c3)n2n1 | 1.82%
COc1ccc2c(c1)[nH]c1c(N3CCN(C(c4ccccc4)c4ccccc4)CC3)ncnc12 | 8.77%
O=C(CCC1CCCC1)NC1CCC(Nc2ccnc3cc(Cl)ccc23)CC1 (stereo not given) | 0.901%
CN1CCN(c2ccc(Nc3c4ccccc4nc4ccccc34)cc2)CC1 | 15.6%
Cc1cnc(C)c(-c2ccc(O)c(CNCC3(N4CCCCC4)CCCCC3)c2)n1 | 0.971%
COc1cc(N)c(Cl)cc1C(=O)NCC1CCN(c2nc(C)cc(C)n2)CC1 | 0%
C[N+]1(CC(=O)NNc2c3ccccc3nc3ccccc23)CCOCC1 | 7.14%
Cc1cc([N+](=O)[O-])ccc1-c1ccc(C(=O)Nc2ccc(-c3nc4ccccc4[nH]3)cc2)o1 | 0%
CN(CCCNc1ccnc2cc(Cl)ccc12)C(=O)c1cccc(Br)c1 | 1.87%
CCSC1=CC(=O)c2ccccc2C1=O | 24.3%
Cc1cccc(NC(=O)c2ccc3ccccc3n2)n1 | 3.23%
CC(C)CC(N)C(=O)N1CCn2c(nc(-c3ccccc3)c2Nc2ccc3c(c2)OCO3)C1 (stereo not given) | 4.11%
C=C(C)CSc1nc(N)c2c3c(sc2n1)CN(CCC)CC3 | 14%
C[N+](C)(C)c1ccc2cc(Br)c3ccccc3c2c1 | 0%
O=C(Nc1cccc(-c2nc3ccccc3[nH]2)c1)c1ccccc1[N+](=O)[O-] | 4.88%
O=C1CSC(=S)N1c1cccc(Cl)c1 | 3.08%
COc1ccc(NC(=O)CCCCCn2c(SCC(=O)NCCc3ccc(OC)c(OC)c3)nc3ccsc3c2=O)cc1 | 0%
O=C1C(NC2CCCC2)=C(N2CCCCC2)C(=O)c2ccccc21 | 15.4%
CC(C)N(CC(=O)Nc1cc(C(C)(C)C)nn1-c1ccc(Cl)c(Cl)c1)C(=O)c1ccc2ccccc2c1 | 2.86%

Compound | IFI
CCOC(=O)c1c(-c2ccc3c(c2)OCO3)[nH]c2cc(OC)ccc2c1=O | 0%
CC(=O)N(C1=C(N(C)C)C(=O)c2ccccc2C1=O)c1cc(C)cc(C)c1 | 15.4%
COc1ccc(Br)cc1S(=O)(=O)N1CCCc2ccccc21 | 1.54%
O=C(Nc1ccc(Cl)c(Cl)c1)Nc1cc(C(=O)NCCCN2CCCCCC2)ccc1Cl | 5.71%
O=S(=O)(NCCCCNc1ccnc2cc(Cl)ccc12)c1ccc(F)cc1 | 1.85%
COc1ccc(OC)c(-c2ccc(C(=O)N3CCN(C/C=C/c4ccccc4)CC3)c(N(C)C)n2)c1 | 2.54%
COC(=O)c1c(N)n(-c2ccccc2OC)c2nc3ccccc3nc12 | 0%
Cc1cc(Nc2cccc(Cl)c2)nc(NCc2ccccc2)n1 | 4.54%
CC(=NNC(=O)c1ccc([N+](=O)[O-])cc1)c1cccc([N+](=O)[O-])c1 | 0%
Cc1ccc(CN2CCc3nc(N4CCCCC4)sc3C2)s1 | 6.94%
COCCN1C(=O)C(O)=C(C(=O)c2ccccc2)C1c1ccccc1[N+](=O)[O-] (stereo not given) | 0%
CN(CCCNc1ccnc2cc(Cl)ccc12)C(=O)C(C)(C)CCl | 4.63%
CN1CCc2c(sc3nc(SCc4ccc(Cl)cc4)n(-c4cccc(Cl)c4)c(=O)c23)C1 | 11.5%
Cc1ccc(NC(=O)C2C3C=CC4(O3)C2C(=O)N(CCCN2CCOCC2)C4C(=O)NC2CCCC(C)C2C)cc1Cl (stereo not given) | 0%
Cc1ccc(S(=O)(=O)N=C2C=C(Sc3nc4ccccc4[nH]3)C(=O)c3ccccc32)cc1 | 12.7%
COc1ccc(C(=O)N2C(C(=O)Nc3ccccc3F)CSC2c2ccc(C(C)(C)C)cc2)cc1 (stereo not given) | 2.15%
CCOC(=O)C1=C(C)N=c2sc(=Cc3cc(Br)ccc3O)c(=O)n2C1c1ccc(OC)c(OC)c1 (stereo not given) | 2.47%
COc1cc(-c2nc(-c3cccc(Cl)c3)c(-c3ccccc3)[nH]2)cc(OC)c1O | 3.37%
COc1cccc(NC(=O)C2C3C=CC4(O3)C2C(=O)N(CC2COc3ccccc3O2)C4C(=O)NC2CCCCC2)c1 (stereo not given) | 0%
CCCCCCc1ccc(C(=O)NCCCCNc2ccnc3cc(Cl)ccc23)cc1 | 2.13%
O=C(ON=C(c1ccncc1)c1ccc(Cl)cc1)c1ccccc1 | 2.54%
